{"source": "the supplement of paper PMC3334620", "note": "The full ranking holds about 33,000 sequences; the median of “E-score (-0.5 to 0.5)” is about -0.017, and the highest 2% start at about 0.3. This is one part of the list."}
{"molecular_target": "T1, Sut1 (UniProt P53032)", "T1 sequence": "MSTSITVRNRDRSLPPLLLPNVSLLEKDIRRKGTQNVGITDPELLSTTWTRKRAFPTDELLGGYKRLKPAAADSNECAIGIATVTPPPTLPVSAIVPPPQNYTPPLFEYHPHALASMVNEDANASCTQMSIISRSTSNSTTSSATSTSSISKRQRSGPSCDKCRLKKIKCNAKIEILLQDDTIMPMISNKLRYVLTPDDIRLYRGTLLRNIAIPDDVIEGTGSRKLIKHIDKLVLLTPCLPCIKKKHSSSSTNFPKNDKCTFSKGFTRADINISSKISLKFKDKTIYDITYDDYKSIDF", "assay": "PBM E-score (8-mer binding enrichment) (E-score (-0.5 to 0.5)); higher = stronger / more preferred TF binding; most listed sequences are background and not binding sites", "conditions": "protein concentration: 200 nM; construct: GST-full length", "summary_of_the_method": "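GST-tagged yeast TFs (full-length or DNA-binding domain) were made by PURExpress in vitro transcription/translation and applied at about 100-200 nM to universal all-10-mer Agilent arrays. The arrays were made double-stranded by primer extension, on fresh or once-stripped slides. Bound protein was detected with fluorescent anti-GST, and scans were normalised with masliner. Each ungapped eight-base word, pooled with its reverse complement, received an E-score (modified Wilcoxon-Mann-Whitney statistic) from the Universal PBM Analysis Suite.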"}
{"sequence": "AGCTTACT", "PBM E-score": 0.00715}
{"sequence": "TACGAAGA", "PBM E-score": 0.0906}
{"sequence": "GTGCAAAC", "PBM E-score": 0.049}
{"sequence": "GGAAGGCC", "PBM E-score": 0.0275}
{"sequence": "CATATGCA", "PBM E-score": -0.0814}
{"sequence": "CCTGCTTC", "PBM E-score": -0.244}
{"sequence": "GTGTAGCA", "PBM E-score": -0.35}
{"sequence": "ACCCAAAG", "PBM E-score": -0.147}
{"sequence": "CCTGTCCG", "PBM E-score": -0.106}
{"sequence": "CGGGAGCC", "PBM E-score": -0.17}
{"sequence": "ATTCGTTG", "PBM E-score": -0.0108}
{"sequence": "GATGTAAC", "PBM E-score": 0.0929}
{"sequence": "GATGGGAC", "PBM E-score": -0.225}
{"sequence": "ATGGTCTG", "PBM E-score": -0.0811}
{"sequence": "CATTCGAA", "PBM E-score": 0.0869}
{"sequence": "GCTTAATA", "PBM E-score": 0.0101}
{"sequence": "ATGCCGTC", "PBM E-score": -0.23}
{"sequence": "AAACGGGC", "PBM E-score": -0.109}
{"sequence": "TCACTCAA", "PBM E-score": 0.0178}
{"sequence": "AAGTATGC", "PBM E-score": -0.0954}
{"sequence": "ATATTTCG", "PBM E-score": 0.137}
{"sequence": "GCTTACCC", "PBM E-score": -0.193}
{"sequence": "AGCTAAGC", "PBM E-score": -0.255}
{"sequence": "AACGTAGA", "PBM E-score": 0.00436}
{"sequence": "CTCTTGCC", "PBM E-score": -0.208}
{"sequence": "ATCCGCAA", "PBM E-score": -0.0823}
{"sequence": "AAAGCTCC", "PBM E-score": 0.0815}
{"sequence": "AACACTCC", "PBM E-score": 0.256}
{"sequence": "CTCCGACC", "PBM E-score": 0.391}
{"sequence": "AACGGGTG", "PBM E-score": -0.0363}
{"sequence": "CCCCGGCG", "PBM E-score": -0.00882}
{"sequence": "ACCCGCTG", "PBM E-score": -0.271}
{"sequence": "CTTATAAG", "PBM E-score": 0.178}
{"sequence": "GAATGAAA", "PBM E-score": 0.181}
{"sequence": "CGGTGTCA", "PBM E-score": -0.115}
{"sequence": "ACTAGATG", "PBM E-score": -0.0398}
{"sequence": "CTTTTCGC", "PBM E-score": 0.127}
{"sequence": "TCAAAACA", "PBM E-score": 0.213}
{"sequence": "CCTGCCAC", "PBM E-score": -0.162}
{"sequence": "TCCGACAA", "PBM E-score": 0.337}
{"sequence": "CGGGTGAG", "PBM E-score": -0.0499}
{"sequence": "TATAAGAA", "PBM E-score": 0.153}
{"sequence": "ATGCTCTA", "PBM E-score": -0.102}
{"sequence": "AATTTGTC", "PBM E-score": 0.0669}
{"sequence": "CGAGAACA", "PBM E-score": -0.0245}
{"sequence": "GATATGCC", "PBM E-score": -0.245}
{"sequence": "CAGATAGA", "PBM E-score": -0.164}
{"sequence": "CCGAGCAA", "PBM E-score": 0.047}
{"sequence": "CCGCACCA", "PBM E-score": -0.0881}
{"sequence": "CCGTGGTC", "PBM E-score": -0.206}
{"sequence": "GGAAGCCA", "PBM E-score": -0.12}
{"sequence": "CGTAGTGC", "PBM E-score": -0.117}
{"sequence": "CCGAAACG", "PBM E-score": 0.198}
{"sequence": "ATAGGCTC", "PBM E-score": 0.0537}
{"sequence": "CCAAGAGC", "PBM E-score": -0.228}
{"sequence": "CCGGGAGA", "PBM E-score": 0.126}
{"sequence": "GTCTTAAC", "PBM E-score": -0.0591}
{"sequence": "CAATTTAC", "PBM E-score": 0.185}
{"sequence": "CCCCAGTA", "PBM E-score": -0.109}
{"sequence": "AGTGATCC", "PBM E-score": -0.0238}
{"sequence": "TAAACTAA", "PBM E-score": 0.323}
{"sequence": "CGAAGAAA", "PBM E-score": 0.297}
{"sequence": "GCCCACGC", "PBM E-score": -0.281}
{"sequence": "ACGGGTGA", "PBM E-score": -0.0761}
{"sequence": "CGTCTTCA", "PBM E-score": -0.00678}
{"sequence": "AAATGTAC", "PBM E-score": 0.135}
{"sequence": "ACGAGTCA", "PBM E-score": -0.254}
{"sequence": "CATAATTC", "PBM E-score": 0.0494}
{"sequence": "TCACACCA", "PBM E-score": 0.0501}
{"sequence": "ACACTATC", "PBM E-score": 0.0365}
{"sequence": "GACGACTA", "PBM E-score": -0.0927}
{"sequence": "AGCCGGTC", "PBM E-score": -0.166}
{"sequence": "CCTCTCCA", "PBM E-score": -0.307}
{"sequence": "CAGAATGC", "PBM E-score": -0.126}
{"sequence": "AAATTCCG", "PBM E-score": 0.337}
{"sequence": "TGCCGGAA", "PBM E-score": 0.188}
{"sequence": "GATCCACA", "PBM E-score": -0.0356}
{"sequence": "GCTGTTTA", "PBM E-score": 0.19}
{"sequence": "GCCCATTA", "PBM E-score": -0.269}
{"sequence": "ATCTCGGC", "PBM E-score": 0.13}
{"sequence": "ACAATAAG", "PBM E-score": 0.139}
{"sequence": "GACAAACC", "PBM E-score": 0.0113}
{"sequence": "CAAAAAAC", "PBM E-score": 0.221}
{"sequence": "ACTTGGGG", "PBM E-score": -0.203}
{"sequence": "GCAACTGC", "PBM E-score": 0.145}
{"sequence": "CCAGAGAA", "PBM E-score": -0.186}
{"sequence": "AATGCCCA", "PBM E-score": -0.116}
{"sequence": "TACAGAGA", "PBM E-score": -0.0918}
{"sequence": "CGTTCCAG", "PBM E-score": -0.163}
{"sequence": "ACACTGGC", "PBM E-score": -0.14}
{"sequence": "CGCCAGCC", "PBM E-score": -0.103}
{"sequence": "GGGAAGCA", "PBM E-score": -0.15}
{"sequence": "CGGCGGAC", "PBM E-score": 0.177}
{"sequence": "CTTCTTGC", "PBM E-score": 0.0337}
{"sequence": "ACGCCCCA", "PBM E-score": -0.0312}
{"sequence": "CGCGGCCG", "PBM E-score": -0.252}
{"sequence": "GTGCTTCA", "PBM E-score": 0.0662}
{"sequence": "AGTATAGA", "PBM E-score": 0.124}
{"sequence": "CCTTCTAC", "PBM E-score": -0.116}
{"sequence": "AAGACAAT", "PBM E-score": 0.132}
{"sequence": "AATGTACG", "PBM E-score": 0.0713}
{"sequence": "ACAGTTCC", "PBM E-score": 0.14}
{"sequence": "ACTACTAC", "PBM E-score": 0.133}
{"sequence": "ATCGTCTC", "PBM E-score": 0.00275}
{"sequence": "TGCATGCA", "PBM E-score": 0.158}
{"sequence": "AGCTCGTA", "PBM E-score": -0.053}
{"sequence": "CGGGTGTA", "PBM E-score": 0.0214}
{"sequence": "TACAGCGA", "PBM E-score": -0.145}
{"sequence": "CTTGTACC", "PBM E-score": -0.00745}
{"sequence": "GCTTTCCC", "PBM E-score": -0.202}
{"sequence": "AAGGTTAC", "PBM E-score": 0.0475}
{"sequence": "ATTCAATG", "PBM E-score": 0.0697}
{"sequence": "AAATGGCT", "PBM E-score": -0.0329}
{"sequence": "GCCCGGCA", "PBM E-score": -0.106}
{"sequence": "ATGGGAGG", "PBM E-score": -0.213}
{"sequence": "CTCAACGA", "PBM E-score": -0.123}
{"sequence": "ATGACGCA", "PBM E-score": 0.0733}
{"sequence": "GAATCCTC", "PBM E-score": -0.19}
{"sequence": "CCCAGCTC", "PBM E-score": 0.03}
{"sequence": "CAGAGTCC", "PBM E-score": 0.17}
{"sequence": "CGTGGCAC", "PBM E-score": -0.0707}
{"sequence": "ACGTACAA", "PBM E-score": 0.101}
{"sequence": "CTTTAGGC", "PBM E-score": 0.045}
{"sequence": "CCCTAGCC", "PBM E-score": -0.265}
{"sequence": "AAGGTCGG", "PBM E-score": 0.0135}
{"sequence": "CCCACTAA", "PBM E-score": -0.054}
{"sequence": "ACACATCT", "PBM E-score": 0.0842}
{"sequence": "AGCTTCTA", "PBM E-score": 0.155}
{"sequence": "AATAAGTG", "PBM E-score": 0.0224}
{"sequence": "AAGTAGAG", "PBM E-score": -0.116}
{"sequence": "GGGCTGAC", "PBM E-score": -0.131}
{"sequence": "ACGGGTAC", "PBM E-score": -0.197}
{"sequence": "CTATTACC", "PBM E-score": 0.00941}
{"sequence": "CCAGTGGC", "PBM E-score": -0.265}
{"sequence": "TAAAATGA", "PBM E-score": 0.251}
{"sequence": "ACCGACTC", "PBM E-score": -0.0026}
{"sequence": "CGTTCGAC", "PBM E-score": -0.0661}
{"sequence": "TACCAGAA", "PBM E-score": 0.155}
{"sequence": "AGAAATGA", "PBM E-score": 0.254}
{"sequence": "ATGACCCC", "PBM E-score": -0.0869}
{"sequence": "CGAACATA", "PBM E-score": 0.196}
{"sequence": "CTATGTGA", "PBM E-score": 0.097}
{"sequence": "AGGTTAGC", "PBM E-score": -0.164}
{"sequence": "AGAACACA", "PBM E-score": -0.0911}
{"sequence": "TAGACCAA", "PBM E-score": 0.089}
{"sequence": "GCACCTAC", "PBM E-score": -0.331}
{"sequence": "GGATCCCA", "PBM E-score": -0.0879}
{"sequence": "CAGTCAAG", "PBM E-score": -0.195}
{"sequence": "ATTGCGCC", "PBM E-score": 0.0208}
{"sequence": "AGCGGCTA", "PBM E-score": -0.0161}
{"sequence": "TCAATGAA", "PBM E-score": -0.0127}
{"sequence": "AGACATAG", "PBM E-score": 0.116}
{"sequence": "ACTTGGAC", "PBM E-score": 0.0102}
{"sequence": "CCGCTGAG", "PBM E-score": -0.149}
{"sequence": "GGGGGGAC", "PBM E-score": -0.435}
{"sequence": "ACCTGCCG", "PBM E-score": -0.186}
{"sequence": "ACCTTCTC", "PBM E-score": 0.0652}
{"sequence": "CAGTGATG", "PBM E-score": -0.202}
{"sequence": "AAAAAATC", "PBM E-score": 0.21}
{"sequence": "GTCAGGCA", "PBM E-score": -0.16}
{"sequence": "ATCTACGG", "PBM E-score": 0.0683}
{"sequence": "CGGATACG", "PBM E-score": -0.0139}
{"sequence": "ACAAAGAG", "PBM E-score": -0.063}
{"sequence": "CAGTCGGC", "PBM E-score": 0.0364}
{"sequence": "CCTCGTAG", "PBM E-score": -0.185}
{"sequence": "GTACTTGA", "PBM E-score": 0.0573}
{"sequence": "CGCGGCAA", "PBM E-score": 0.0233}
{"sequence": "ATTTCATA", "PBM E-score": 0.226}
{"sequence": "ACTACATG", "PBM E-score": 0.136}
{"sequence": "CGTTGCTA", "PBM E-score": -0.00565}
{"sequence": "AGTTCGTG", "PBM E-score": -0.0943}
{"sequence": "AGCTATCG", "PBM E-score": -0.181}
